The values below come from the RNAGym collection of RNA variant scans (doi:10.1093/nar/gkz1192).

The chains are these.
B1: CPEB3 Ribozyme (parent)
chain: UAACAGGGGGCCACAGCAGAAGCGUUCACGUCGCAGCCCCUGUCAGAUUCUGGUGAAUCUGCGAAUUCUGCUGUAUAUCUC

Read counts are not given, so values of variants with three or more changes are uncertain.

The series covers variants of B1. The series is described as follows: self-cleavage, relative activity (ratio to wild type); higher = more cleavage; in vitro, sequencing. The essentials:
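Relative activity compares each variant's cleaved/total read fraction with that of the unmutated ribozyme. To get these fractions, barcoded CPEB3 ribozyme libraries from rounds of error-prone PCR were transcribed with T7 RNA polymerase for 5 hours at 37°C and then given 15 min of DNase I treatment before EDTA was added. The RNAs were reverse transcribed with template switching and sequenced on Illumina, and DNA sequencing linked barcodes to variants. A minimum of 5 reads applied, and three batches were averaged.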
As to A3C A15G U25C A57G, the self-cleavage is 0.7. Next, A3C A18G U41C U48C U69A: 0.22. Next, A3G A5G U49A: 0.49. For the variant A3C A35G U51C U54A A57G, the self-cleavage worked out at 1.27. Next, A2U A21G A45U U54A: 0.16. For the variant A3G A5U U49C U80A, the self-cleavage was 0.72. Next, A2U A56G A65G: 0.22; A2U A5G U43A U48C A65G: 0.23; A3G A13G C29U A35U U43A U76A: 0.33.

As to A3C A21G G33C, the self-cleavage turned out to be 0.09. Regarding A2U A13U A77G, the self-cleavage worked out at 1.11. Regarding A3C G42A U48A U72C U74C U80C, the self-cleavage amounted to 0. Next, A2U U31A A35U A45U U49C A77G: 0.07; A3C C34A C38A: 0.4; A3G A5G A21G U48C A64G: 0.47. Next, A2U A20U U43C U69C A77G: 0.15. With A2G U69A U72C U76C, the self-cleavage stood at 0.57.

In the case of A2G U60C C62U U67C G70A, the self-cleavage stood at 0.58. Next, A2U C37A C59U U60C: 0.16; A2U U41C U74C: 1.25. Next, A3C U31A U43A C44U U48C: 0.08. Next, A2U U49C G63A U72C: 0.13; A3G A13G C27A U60C U69C: 0.26.

As to A3G A5G C12A A13G A57G U72C, the self-cleavage amounted to 0.32.

Turning to A2U C27A U60C, the self-cleavage amounted to 0.22. Take A3G A5U A20G G30U U48C: the self-cleavage came out at 0.74. Next, A3C A20G U25C A28G A45U A56G: 0.22; A2U A18C A21U U58C: 0.15; A3C G16A A64G A65G U66C U67A U76A: 0.1. Next, A3G A13C G30C: 0.37; A3G A5G U31C A35C U69C: 0.45; A3G A5G U26A A45G U51A G52U: 0.41.

As for A2U A5G A13U U25C A77G U78C, the self-cleavage is 0.21. Next, A2U A5U G10A A45G U49C G55C A64U: 0; A2U A5G A15G U25C A35G A64U: 0.08; A2U A5G G9U C40U U43A U48C A57G: 0.05. Next, A2U C4U U72C U78A: 1.22. Next, A3C A28G U31C G33A U60A U78A: 0.04; A3C A28G A35U: 0.32; A3C G22A U26G A28G C39U U41A: 0.52.

On to A2G U60C C79A, for which the self-cleavage turned out to be 0.42.

As for A2U A56G A57G U69A, the self-cleavage is 0.24. Take A3C C29U U43A A64G U76G: the self-cleavage is 0.56. Next, A2U G7A A28G U72C: 0.26. Next, A3G A5U A28G: 0.85. Next, A2U A15U U26A: 0.41; A3C C37G U67C U72C: 0.27; A2G U78C U80C: 0.62. For the variant A2U U66A A75G, the self-cleavage was determined as 0.29. Next, A2G U58A U72C: 0.23. Next, A3G A5G U25C A45G U49A U58C: 0.12. As for A3C U31C A47U U72C U78G, the self-cleavage amounted to 0.23.

For A2U A15U A45U U51A U69C, the self-cleavage worked out at 0.28. Next, A3G A5U A20U A35U U43A: 0.23; A2U C14U A64G U69A U72C U76A: 0.19; A2U A20G U26A C38U A47U U51C U74A: 0.2.

Take A2U C14U U25C: the self-cleavage is 0.37. Next, A3G A5G C23U A65G U69C U78C: 0.17; A2U A18U U48C U67A U69C: 0.13; A2U A5G U26C G33A A47G: 0.2. Next, A2U A3G G9A U26C C39U U66C U76A: 0.03. Next, A3G A13G A18U G33A U43C: 0.4; A2U A20U A47U: 0.29; A3C G10A A21U U41A U43C U60C: 0.02. Turning to A3G A5G U25C A35U U72C, the self-cleavage was 0.66.

As for A2U C14U U69A U74C, the self-cleavage was 0.76. Next, A2U A18U C38G U78A C81U: 0.5.

For A3C A5G A35U A64U, the self-cleavage stood at 0.25. Next, A2U A15G A28U A64G U69A: 0.04; A2U A13G U26C A35U: 0.47; A3C A13U U54C: 1.23. A3C A15G G63C: the self-cleavage was determined as 1.12.

Turning to A3G A5G A35U U69G U78C, the self-cleavage was 0.27. Next, A3G A13G A35U A56G: 0.53; A2U U25A U31C A35G U49C A57C U67A: 0.06. Next, A3G A5G U49C U51A U78G: 0.2; A3C U31C U43C A64G U67C A77G: 0.17; A2U U66C U72C U74A U78C: 0.57. Next, A2U A20G A64G: 0.56; A2U U25C G63U: 0.5; A2U A21G U74C: 0.97.

Turning to A3G A13G C38U G42A G73A U80A, the self-cleavage amounted to 0.19. As for A3G A5G A77U U80C, the self-cleavage was found to be 0.71.

For the variant A2U U41C A45U, the self-cleavage was determined as 0.68. Next, A2U A20G G55A: 0.64; A3C U43C U67C C71U: 0.17.

In the case of A2U G9A A15U A56G C59A U78C, the self-cleavage was determined as 0.05. Next, A2U A3G A21G U72A G73U: 0.85; A2U U25C A65G U69A: 0.1. A3G A5C U31C U80C: the self-cleavage was 0.76. Next, A2U G36A U54C: 0.11. Take A3G A13G C17U U31C A47G U51G U66C: the self-cleavage was determined as 0.25. With A2U U25G G52U A56U, the self-cleavage turned out to be 0.36.

As for A2U U25A U26C U43A C50U U58C U78C, the self-cleavage worked out at 0.09. Next, A3C A5C A15U A28G U66C G70A U72C: 0.05. Turning to A2U A45U U49A G53U C59A, the self-cleavage is 0.15. On to A2U A18G C38U U41C U49A A64G U76A, for which the self-cleavage is 0.05. Turning to A2U A28G A45G, the self-cleavage came to 0.14. Next, A2U A3G U25C G36A A65U U80C: 0.32; A2U U25C U41C U69C: 0.05. Next, A3G A5U U67A: 0.68; A2U A20G U41C U54C A75G: 0.67; A2U A5C A28U: 0.98. Next, A3G A5G U25C G33A U69C U72C: 0.22; A2U A45G A75G: 0.89. On to A3C C4G A45C U51A C62U U74C, for which the self-cleavage came out at 0.12. Next, A2U A15U U26C A57G: 0.4; A2U A13G G61A: 0.39. Next, A3C U25C G30A U31C A64U U67A U78C: 0.08.

As to A2U A5U A13G A64G, the self-cleavage came to 0.98. With A3G A5G A21G U26C C27A A47G U48C, the self-cleavage came out at 0.88.

Regarding A3C A5G A18C U26C C40A, the self-cleavage amounted to 0.62. In the case of A3G A13G A15G A56U, the self-cleavage worked out at 0.32. Next, A2U C4U U43G U74A: 0.23; A3C A35U C38U: 0.75. Next, A2U A18G A47G: 0.79; A3C A13G A18G C29U G36U U49C U54A: 0.08; A2U A47G A57C: 0.25. Next, A2U C32U A45U A47U U48G U66C: 0.11. As to A3G A5G U51A U58C, the self-cleavage was found to be 0.59. Next, A2U U25A U43A U54C U60C U67C: 0.08; A3C C34U C39U A45U U51C U67C A77U: 0.18. Take A3G A5U G6U C17U: the self-cleavage stood at 0.52. Consider A3G A5G A13G U26C, for which the self-cleavage is 0.2. Next, A2U A3G A5G G19U U76A: 0.17; A3G A5U U41C A65G: 0.48. Consider A2U A20G A75G, for which the self-cleavage was 0.67. For the variant A2U A20G C23A U31A U49C U72A U80C, the self-cleavage came to 0.15. Next, A3C G42A A64G: 0.2; A3G A13G A15U U41C: 0.83. Next, A2G U67A U80C: 0.16; A3C U43C A75G U80C: 0.52; A3G A5G A56G U60C A65G: 0.58. Next, A3C U26A U49C: 0.39. A2U G7A A65G U72C: the self-cleavage is 0.31. Next, A2G U54A U76A: 0.6; A2U A21U U26A A35U: 0.05; A2U U25C A47G U60A A64G: 0.1. Next, A2U U25C C29A C62A A77G C81U: 0.07; A2U A3G U31A A47G A64U A77G: 0.26; A2U U49C U72A: 0.5. Next, A2U A13G G33A U43A A45U U69C: 0.07; A2G U60C U67C A75G: 0.09; A2U A18G A35U U51C: 0.11. Take A3C A13U A15G A20G U41C: the self-cleavage stood at 0.62. With A2U A21G A64G U72C, the self-cleavage is 0.32.

Regarding A3G A5G U41C C68G, the self-cleavage was 0.56. Next, A2U A3G C4A A18U U67C: 0.26. Next, A3G A5U A28U C32A A57G U67C: 0.09. Next, A2U U26C U49A: 0.42.

Take A3G A5G C23U U69C A75C U78C: the self-cleavage worked out at 0.08. Next, A2U A5U A15G A56G U67A U69C: 0.19; A2U U51C U54A A64G U74C: 1.13; A2U A5G A15G C27U G33C U76C: 0.18. Take A2G U58A U69A U80A: the self-cleavage came to 0.18. Next, A3G A5G C38G A47G U69G U74C U80C: 0.07; A3C U41C U48A: 0.44; A3G A5G C12U U31A A65G U67C A75G: 0.13. In the case of A3G A5G A13U A20G U69C, the self-cleavage amounted to 0.41. Next, A3G A5U A15G U51A U66C A77U U78C: 0.35. Next, A2U C12A A13G A18G U54C C59U: 0.12; A2U G7A A65U: 0.07; A2U C34U A65G U67C: 0.17. Next, A2U G9C G24C A28G U60A: 0.06. A3G A5U A64G U72A: the self-cleavage is 0.78. Next, A3G A5G U26C U67A: 0.06.

As for A3C A15U C23U U43C U74C A75G, the self-cleavage is 0.06.
